{"source": "patent US20240156960A1", "about": "(priority 2020, published 2024)", "origin": "cited, not measured here", "molecules": {"B1": {"name": "C031 (antibody, listed as Homo sapiens, V domains shown)", "VH": "EVQLVESGGGLVQPGGSLRLSCAASGFTFSSYDMHWVRQATGKGLEWVSAIGTAGDTYYPGSVKGRFTISRENAKNSLYLQMNSLRAGDTAVYYCARVGYDSSGYSGWYFDLWGRGTLVTVSS", "VL": "[about 100 residues cut from this listing]PLTFGGGTKVEIK"}, "B2": {"name": "C019 (antibody, listed as Homo sapiens, V domains shown)", "VH": "QVQLVQSGAEVKKPGASVKVSCKASGYTFTSYYMHWVRQAPGQGLEWMGIINPSGGSTSYAQKFQGRVTMTRDTSTSTVYMELSSLRSEDTAVYYCARVPREGTPGFDPWGQGTLVTVSS", "VL": "[about 100 residues cut from this listing]"}}, "key": {"[1]": {"target": "SARS-CoV2 S; RBD (Severe acute respiratory syndrome coronavirus 2)", "conditions": "epitope S"}}, "data": [{"molecule": "B1", "values": [{"measurement": "Not Neutralising Vs", "setting": "SARS-CoV1", "result": "SARS-CoV1,"}, {"measurement": "Binds to", "setting": "[1]", "result": "SARS-CoV2"}]}, {"molecule": "B2", "values": [{"measurement": "Not Neutralising Vs", "setting": "SARS-CoV1", "result": "SARS-CoV1,"}, {"measurement": "Binds to", "setting": "[1]", "result": "SARS-CoV2"}]}]}
